Laboratory results from patent publication US20070111970A1, “Inositol compounds and uses of same in the treatment of diseases characterized by abnormal protein folding or aggregation or amyloid formation, desposition, accumulation or persistence” (priority 2005, published 2007).
The name of at least one read-out is uncertain.

target: T1, immobilized Aβ fibrils (Homo sapiens, UniProt P05067); assay: FAC-MS % shift of free Aβ monomer on immobilized Aβ fibrils in presence of compounds; type: binding; settings: Table 1; FAC-MS % shift of Aβ monomer indicator (1 μM); compounds at 1 and 10 μM
T1 construct: Amyloid beta (Aβ) fibrils were prepared
T1 sequence (P05067 672-711 limits assumed): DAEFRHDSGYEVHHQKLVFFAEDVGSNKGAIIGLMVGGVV

Going from `O[C@@H]1[C@@H](O)[C@H](O)[C@@H](Cl)[C@H](O)[C@H]1O` [1-Chloro-1-deoxy-scyllo-inositol] to `CC(=O)O[C@H]1[C@H](O)[C@@H](O)[C@H](O)[C@@H](O)[C@@H]1O` [1-acetyl-scyllo-inositol], the “ABeta SHIFT” value falls from 67% to 31%.

With `C[C@]1(O)[C@H](O)[C@@H](O)[C@H](O)[C@@H](O)[C@@H]1O` [1-Methyl-1,3,5/2,4,6-Inositol] the “ABeta SHIFT” value was 22%.

same assay, conditions: Table 2; FAC-MS % shift of Aβ monomer indicator (1 μM); compounds at 1 and 10 μM

`CC1CCC(C(C)C)C(OCC(O)CN2CCOCC2)C1` (centres unmarked) and `CC1CCC(COC(=O)CN2CCOCC2)C(C)C1` (centres unmarked) are the same in “ABeta SHIFT” value: 1% for the first, 1% for the second.

`CCCC1CCC(c2ccc(C(C)=O)cc2)CC1C` (centres unmarked) and `CC1CCC(C(C)C)C(OC(=O)CCc2ccccc2)C1` (centres unmarked) are the same in “ABeta SHIFT” value: 1% for the first, 1% for the second.

Going from `Cc1ccc[n+](CC(=O)OC2CC(C)CCC2C(C)C)c1` (centres unmarked) to `CC1CCC(C(C)C)C(OC(=O)C2C3CCCCC32)C1` (centres unmarked), the “ABeta SHIFT” value falls from 1% to 0%.

Going from `O=C(O)C1(O)CC(O)C(O)C(O)C1` (centres unmarked) to `O=C(O)[C@]1(O)C[C@@H](O)[C@@H](O)[C@H](O)C1`, the “ABeta SHIFT” value rises from 1% to 3%.

First: CCN1CCC(NC2CCCC(C)C2C)CC1 (centres unmarked)
Second: CC1CCCC(NC(=O)NC2CCCCC2)C1C (centres unmarked)
The “ABeta SHIFT” value of the first is higher: 1% for the first, 0% for the second.

`CC(CCc1ccc(O)cc1)NC1CCCC(C)C1C` (centres unmarked) and `Cc1ccc(C(C)(C)CC(C)NC2CCCC(C)C2C)o1` (centres unmarked) are the same in “ABeta SHIFT” value: 1% for the first, 1% for the second.

Compared with `CC1CC(NC(=O)c2nc[nH]n2)CC(C)(C)C1` (centres unmarked), `CC1CC(NC(=O)c2cccs2)CC(C)(C)C1` (centres unmarked) is lower in “ABeta SHIFT” value: 1% for the first, 0% for the second.

Going from `CC1(C(=O)O)CC(C)(C(=O)O)CC(C)(C(=O)O)C1` (centres unmarked) to `CC1CC(C)(C(=O)O)CCC1(C)C` (centres unmarked), the “ABeta SHIFT” value falls from 1% to 0%.

`OCC1CC(Cl)CC(Cl)C1O` (centres unmarked) and `CC1CC(C(=O)O)CC(C(=O)O)C1` (centres unmarked) are the same in “ABeta SHIFT” value: 0% for the first, 0% for the second.

`COc1ccc(C2(O)C(C)CCCC2C)cc1` (centres unmarked) and `COc1cccc(C(=O)OC2CC(C)CC(C)C2)c1` (centres unmarked) are the same in “ABeta SHIFT” value: 0% for the first, 0% for the second.

Compared with `CC1CCCC(NC(=O)C2CCCCC2C(=O)O)C1C` (centres unmarked), `CC1CCCC(NC(=O)NC(=O)CN2CCCC2)C1C` (centres unmarked) is higher in “ABeta SHIFT” value: 0% for the first, 1% for the second.

`CCCCCCCCCC(=O)NC1CCCC(C)C1C` (centres unmarked) and `CCCCCCCCC(=O)NC1CC(C)CC(C)(C)C1` (centres unmarked) are the same in “ABeta SHIFT” value: 0% for the first, 0% for the second.

First: CC1CCCC(NC(=O)c2nc[nH]n2)C1C (centres unmarked)
Second: CC1CCCC(NC(=O)CSc2nncs2)C1C (centres unmarked)
The “ABeta SHIFT” value of the first is lower: 0% for the first, 1% for the second.

`CC(C)(C)C1CC(C(=O)O)CC(C(=O)O)C1` (centres unmarked) and `CC1CC(NC(=O)C2CCC2)CC(C)(C)C1` (centres unmarked) are the same in “ABeta SHIFT” value: 0% for the first, 0% for the second.

`CC1CCN(CC(O)COC2CC(C)CC(C)(C)C2)CC1` (centres unmarked) and `CC1CC(NC(=O)C2(C)CC2(Cl)Cl)CC(C)(C)C1` (centres unmarked) are the same in “ABeta SHIFT” value: 0% for the first, 0% for the second.

`CC1CC(NC(=O)c2cccc3ccccc23)CC(C)(C)C1` (centres unmarked) and `CC1CC(OC(=O)/C=C/c2ccccc2)CC(C(C)C)C1` (centres unmarked) are the same in “ABeta SHIFT” value: 0% for the first, 0% for the second.

`COc1cccc(OC)c1C(=O)OC1CC(C)CC(C)C1` (centres unmarked) and `CC1CC(C)CC(OC(=O)c2ccco2)C1` (centres unmarked) are the same in “ABeta SHIFT” value: 0% for the first, 0% for the second.

Going from `CC1CCC(O[C@H]2C=CC(=O)O2)C(C(C)C)C1` (some centres unmarked) to `CC1CCCC(NC(=O)COC(=O)C2=COCCO2)C1C` (centres unmarked), the “ABeta SHIFT” value rises from 0% to 1%.

Going from `CC(C)C(=O)O[C@@H]1[C@@H](OC(=O)C(C)C)[C@H](OC(=O)C(C)C)[C@H](O)[C@H](OC(=O)C(C)C)[C@H]1OC(=O)C(C)C` to `CC(C)C(=O)O[C@H]1[C@H](OC(=O)C(C)C)[C@@H](OC(=O)C(C)C)[C@H](OC(=O)C(C)C)[C@@H](OC(=O)C(C)C)[C@H]1OC(=O)C(C)C`, the “ABeta SHIFT” value rises from 4% to 5%.

First: CC(C)(C)C(=O)O[C@@H]1[C@@H](OC(=O)C(C)(C)C)[C@H](OC(=O)C(C)(C)C)[C@H](O)[C@H](OC(=O)C(C)(C)C)[C@H]1OC(=O)C(C)(C)C
Second: CC(C)(C)C(=O)O[C@H]1[C@H](OC(=O)C(C)(C)C)[C@@H](OC(=O)C(C)(C)C)[C@H](OC(=O)C(C)(C)C)[C@@H](OC(=O)C(C)(C)C)[C@H]1OC(=O)C(C)(C)C
The “ABeta SHIFT” value of the first is higher: 5% for the first, 4% for the second.

`CC(=O)O[C@@H]1[C@@H](OC(=O)C(C)(C)C)[C@H](OC(=O)C(C)(C)C)[C@H](OC(C)=O)[C@H](OC(=O)C(C)(C)C)[C@H]1OC(=O)C(C)(C)C` and `CCC(=O)O[C@H]1[C@H](OC(=O)CC)[C@@H](OC(=O)CC)[C@H](OC(=O)CC)[C@@H](OC(=O)CC)[C@H]1OC(=O)CC` are the same in “ABeta SHIFT” value: 4% for the first, 4% for the second.

`CC1CCCC(NC(=O)COc2ccccc2C#N)C1C` (centres unmarked) and `CC1CCCC(NC(=O)Cn2nnc3ccccc32)C1C` (centres unmarked) are the same in “ABeta SHIFT” value: 1% for the first, 1% for the second.

First: OC1COC(OC2C(O)C(O)C(O)C(O)C2O)C(O)C1O (centres unmarked)
Second: CO[C@H]1[C@H](O)[C@@H](O)[C@H](O)[C@H](O)[C@H]1O
The “ABeta SHIFT” value of the first is lower: 3% for the first, 5% for the second.

First: O=C(/C=C/c1ccc(O)c(O)c1)OC1C[C@](O)(C(=O)O)CC(O)[C@H]1O (some centres unmarked)
Second: CC(=O)O[C@H]1[C@H](O)[C@@H](OCc2ccccc2)[C@H](O)[C@@H](O)[C@@H]1O
The “ABeta SHIFT” value of the first is higher: 2% for the first, 1% for the second.

`OC1C2OC3OC1C(OCc1ccccc1)C(O3)C2O` (centres unmarked) and `O[C@@H]1[C@@H](O)[C@H](O)[C@@H](OCc2ccccc2)[C@H](O)[C@H]1O` are the same in “ABeta SHIFT” value: 3% for the first, 3% for the second.

Compared with `Cc1ccc(S(=O)(=O)OC2C3OC4OC(C3O)C(OS(=O)(=O)c3ccc(C)cc3)C2O4)cc1` (centres unmarked), `Cc1ccc(S(=O)(=O)OC2C3OC4OC5C3OC(O)(S(=O)(=O)c3ccc(C)cc3)C5C2O4)cc1` (centres unmarked) is higher in “ABeta SHIFT” value: 3% for the first, 4% for the second.

Compared with `O=C1[C@@H](O)[C@@H](O)[C@@H](O)[C@H](O)[C@H]1O`, `O=C1[C@@H](O)[C@H](O)[C@@H](O)[C@H](O)[C@@H]1O` is lower in “ABeta SHIFT” value: 7% for the first, 5% for the second.

Compared with `CO[C@H]1[C@H](O)[C@@H](O)[C@H](O)[C@H](O)[C@@H]1O`, `CO[C@H]1[C@H](O)[C@@H](O)[C@@H](O)[C@@H](O)[C@@H]1O` is lower in “ABeta SHIFT” value: 4% for the first, 3% for the second.

`CC1(C)O[C@@H]2[C@H]3OC(C)(C)O[C@H]3[C@H](O)[C@@H](O)[C@@H]2O1` and `CC1(C)O[C@H]2[C@@H]3OC(C)(C)O[C@@H]3[C@@H](O)[C@H](O)[C@H]2O1` are the same in “ABeta SHIFT” value: 2% for the first, 2% for the second.

`O/N=C/C(=N/O)c1ccccc1` and `O=C(c1ccccc1)c1ccc(O)c(O)c1O` are the same in “ABeta SHIFT” value: 0% for the first, 0% for the second.

`CC1CCC(=N\O)/C(=N/O)C1` (centres unmarked) and `O=C1C(O)C(O)C(=O)N1C1CCCCC1` (centres unmarked) are the same in “ABeta SHIFT” value: 0% for the first, 0% for the second.

`O=[N+]([O-])c1cccc(NC2OC(CO)C(O)C(O)C2O)c1` (centres unmarked) and `OCC1OC(Nc2ccc(Cl)cc2)C(O)C(O)C1O` (centres unmarked) are the same in “ABeta SHIFT” value: 0% for the first, 0% for the second.

`CC1OC(Nc2ccc(Cl)c([N+](=O)[O-])c2)C(O)C(O)C1O` (centres unmarked) and `Cc1ccc(NC2OC(C(O)CO)C(O)C2O)cc1[N+](=O)[O-]` (centres unmarked) are the same in “ABeta SHIFT” value: 0% for the first, 0% for the second.

`OCC(O)C1OC(Nc2ccc(Cl)cc2)C(O)C1O` (centres unmarked) and `OCC1OC(Nc2ccc(Br)cc2)C(O)C(O)C1O` (centres unmarked) are the same in “ABeta SHIFT” value: 0% for the first, 0% for the second.

`CCC1CCC(N(CCO)CCO)CC1` (centres unmarked) and `CC1(C)CC(=O)C(=CNC(CO)(CO)CO)C(=O)C1` are the same in “ABeta SHIFT” value: 2% for the first, 2% for the second.

Compared with `NNC(=O)C1CCCCC1`, `CO[C@@H]1[C@@H](O)[C@H](OC)[C@@H](O)[C@H](O)[C@H]1O` is higher in “ABeta SHIFT” value: 2% for the first, 3% for the second.

`NCCNC1OC(CO)C(O)C(O)C1O` (centres unmarked) and `CO[C@@H]1[C@@H](O)[C@H](OC)[C@@H](O)[C@H](OCc2ccccc2)[C@H]1O` are the same in “ABeta SHIFT” value: 2% for the first, 2% for the second.
